In a collection of fitness landscapes (doi:10.1016/j.celrep.2020.107928):
In all, about 81,000 sequences were measured (“one-hybrid fitness for binding NBS DNA”: median about -0.1, highest 2% from about 0.36 on). Some of the results follow.

B1: Caulobacter ParB omega fusion; a variant is named by its letters at X, in order, B8GW30 (parent)
chain: MESVVVGEPGMSEGRRGLGRGLSALLGEVDAAPAQAPGEQLGGSREAPIEILQRNPDQPRRTFREEDLEDLSNSIREKGVLQPILVRPSPDTAGEYQIVAGERAWRAAQRAGLKTVPIMVRELDDLAVLEIGIIENVQRADLNVLEEALSYKVLMEKFERTQENIAQTIGKSXSHVANXMRLLXLPDEVQSYLVSGELTAXHARAIAAAADPVALAKQIIEGGLSVRETEALARKAPNLSAGKSKGGRPPRVKDTDTQALESDLSSVLGLDVSIDHRGSTGTLTITYATLEQLDDLCNRLTRGI

Variants of: B1
Assay: one-hybrid fitness for binding NBS DNA (the Noc-binding site; scaled: cognate 1, non-cognate 0); higher = stronger binding
Settings: with NBS DNA site
Summary of the method: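 Fitness here means the log change in variant-to-wild-type read ratio between plasmids sequenced before and after selection. That scale was set so cognate equals 1 and non-cognate equals 0. The selection was a bacterial one-hybrid screen of Caulobacter ParB libraries, four specificity codons randomised, in E. coli USO carrying a HIS3 reporter with the site 19 bp from the promoter, grown 48 hours at 37°C on M9-minus-histidine with 0.1 mM IPTG and 5 mM 3-AT.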

Variant	one-hybrid fitness for binding NBS DNA
KLAM	≤ 0.2
AGSN	≤ 0.2
TYMR	≤ 0.2
NTRG	≤ 0.2
YEAG	≤ 0.2
YQVG	≤ 0.2
AIGR	≤ 0.2
RWYP	≤ 0.2
DVTD	≤ 0.2
EACS	≤ 0.2
IAGT	≤ 0.2
RDTP	≤ 0.2
QPLL	≤ 0.2
TTFM	≤ 0.2
GFTT	≤ 0.2
KRYE	≤ 0.2
NNLG	≤ 0.2
TPIA	≤ 0.2
DSMI	≤ 0.2
FSTF	≤ 0.2
PTAC	≤ 0.2
MHKT	≤ 0.2
IMQR	≤ 0.2
GCRV	≤ 0.2
AARG	≤ 0.2

Variant	one-hybrid fitness for binding NBS DNA
WRMA	≤ 0.2
FQGR	≤ 0.2
VATF	≤ 0.2
QQGI	≤ 0.2
HITG	≤ 0.2
CKQS	≤ 0.2
PAAH	≤ 0.2
SGDG	≤ 0.2
KFVM	≤ 0.2
FRTF	≤ 0.2
CTIG	≤ 0.2
SLRV	≤ 0.2
RHHR	0.447
LIPR	≤ 0.2
YASD	≤ 0.2
DIMS	≤ 0.2
CNDS	≤ 0.2
CRVC	≤ 0.2
FTSV	≤ 0.2
VANV	≤ 0.2
GPLV	≤ 0.2
VSMT	≤ 0.2
HIVG	≤ 0.2
HDSC	≤ 0.2
AIRP	≤ 0.2

Variant	one-hybrid fitness for binding NBS DNA
AVDS	≤ 0.2
GLWQ	≤ 0.2
ASDS	≤ 0.2
GQCG	≤ 0.2
VTAA	≤ 0.2
FSNM	≤ 0.2
RGKW	≤ 0.2
GTTC	≤ 0.2
MRFG	≤ 0.2
WRDA	≤ 0.2
QVGE	≤ 0.2
PANS	≤ 0.2
HRFW	≤ 0.2
PYCM	≤ 0.2
ITEW	≤ 0.2
NTWK	≤ 0.2
VRHE	≤ 0.2
YSKI	≤ 0.2
TSLR	≤ 0.2
QNSC	≤ 0.2
PQCP	≤ 0.2
CFYT	≤ 0.2
RFLN	≤ 0.2
HRTA	≤ 0.2
YHRS	≤ 0.2

Variant	one-hybrid fitness for binding NBS DNA
RPDW	≤ 0.2
HALM	≤ 0.2
RTKS	0.622
CGQC	≤ 0.2
QYFN	≤ 0.2
RERL	≤ 0.2
RKFP	≤ 0.2
IFNL	≤ 0.2
AGSC	≤ 0.2
QMNH	0.284
HPIM	≤ 0.2
RKYR	0.573
PAFV	≤ 0.2
AVIT	≤ 0.2
QCNR	0.751
NPRQ	≤ 0.2
MRLT	≤ 0.2
QRDQ	0.215
DSDG	≤ 0.2
WSYF	≤ 0.2
VLGR	≤ 0.2
TNGG	≤ 0.2
YDIG	≤ 0.2
MTMG	≤ 0.2
EHWS	≤ 0.2

Variant	one-hybrid fitness for binding NBS DNA
CCNG	≤ 0.2
QYPS	0.205
KNRT	≤ 0.2
RYGW	≤ 0.2
DWGT	≤ 0.2
QKDE	≤ 0.2
TSCS	≤ 0.2
ETQS	≤ 0.2
LRQH	≤ 0.2
HTKW	≤ 0.2
SVCS	≤ 0.2
NTNA	≤ 0.2
VKQH	≤ 0.2
IYLD	≤ 0.2
NRQA	≤ 0.2
FTHP	≤ 0.2
PFWS	≤ 0.2
PTSI	≤ 0.2
GARA	≤ 0.2
LKNS	≤ 0.2
THYG	≤ 0.2
GHTL	≤ 0.2
WLMC	≤ 0.2
RDFR	≤ 0.2
DAPG	≤ 0.2

Variant	one-hybrid fitness for binding NBS DNA
DYPW	≤ 0.2
RYCR	0.377
YTKY	≤ 0.2
RMVH	≤ 0.2
PKTK	≤ 0.2
KYRE	≤ 0.2
FKMI	≤ 0.2
RLYP	≤ 0.2
VIEF	≤ 0.2
TEQG	≤ 0.2
LLVF	≤ 0.2
GLNN	≤ 0.2
TKDT	≤ 0.2
MFCV	≤ 0.2
AKCT	≤ 0.2
QIYR	0.348
MILG	≤ 0.2
TRNA	≤ 0.2
QSSH	≤ 0.2
MCGC	≤ 0.2
KYKT	0.328
IEEG	≤ 0.2
QPTV	≤ 0.2
QCWI	≤ 0.2
RLEG	≤ 0.2

Variant	one-hybrid fitness for binding NBS DNA
HETT	≤ 0.2
LMCS	≤ 0.2
MGNE	≤ 0.2
NNDT	≤ 0.2
TYDG	≤ 0.2
REPN	≤ 0.2
AWAN	≤ 0.2
EFEV	≤ 0.2
YCPT	≤ 0.2
QIKI	≤ 0.2
VTWT	≤ 0.2
STSQ	≤ 0.2
NGPW	≤ 0.2
FGVR	0.232
PSST	≤ 0.2
NTLY	≤ 0.2
SFRP	≤ 0.2
EGNT	≤ 0.2
KDCT	≤ 0.2
DPAV	≤ 0.2
ANVS	≤ 0.2
RHFN	≤ 0.2
RWTS	≤ 0.2
SEMH	≤ 0.2
AFRF	≤ 0.2

Variant	one-hybrid fitness for binding NBS DNA
VVLF	≤ 0.2
ENPC	≤ 0.2
QTKV	0.599
RHQW	≤ 0.2
RNKP	≤ 0.2
VMCC	≤ 0.2
NSTH	≤ 0.2
LPRD	≤ 0.2
DFKS	≤ 0.2
MQDS	≤ 0.2
PNMI	≤ 0.2
YVLL	≤ 0.2
QALT	0.352
GTKF	≤ 0.2
LLRY	≤ 0.2
WDNR	≤ 0.2
WNAN	≤ 0.2
GVGR	0.24
TMKS	≤ 0.2
QSSQ	0.338
